We go through 109 sequences from the supplement of paper PMC3334620.

The full ranking holds about 33,000 sequences; the median of “E-score (-0.5 to 0.5)” is about -0.016, and the highest 2% start at about 0.31. Some of the results follow.

For the assay, the target named is Cst6 (UniProt P40535). Kind of assay: PBM E-score (8-mer binding enrichment) (E-score (-0.5 to 0.5)); higher = stronger / more preferred TF binding; most listed sequences are background and not binding sites. Particulars: protein concentration: 200 nM; construct: GST-DNA-binding domain. The protocol: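 Universal 'all 10-mer' protein binding microarrays (Agilent AMADID 015681) probed with GST-tagged S. cerevisiae TFs (full-length or DBD) made by in vitro transcription/translation (PURExpress), about 100-200 nM. Bound TF was detected with fluorescent anti-GST. Each ungapped 8-mer (which stands for itself and its reverse complement) is scored by the PBM enrichment score (E-score), a modified Wilcoxon-Mann-Whitney statistic from -0.5 to +0.5, computed with the Universal PBM Analysis Suite. Scale: above 0.35 generally sequence-specific binding.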
Take AAACGATC: the “PBM E-score” value was 0.0158.

As for GGTAGTAC, the “PBM E-score” value was -0.17.

For CTCCCGCA, the “PBM E-score” value is -0.0754.

In the case of GACATCAA, the “PBM E-score” value was 0.327.

Take ACCCACCC: the “PBM E-score” value came out at 0.0727.

On to AGAAAGCA, for which the “PBM E-score” value was found to be 0.259.

In the case of TGAAAACA, the “PBM E-score” value was determined as 0.241.

In the case of AACACAAG, the “PBM E-score” value stood at 0.00354.

For ACTTGTGA, the “PBM E-score” value turned out to be 0.143.

Regarding AAGGTATG, the “PBM E-score” value was -0.0356.

For ATTCGAGA, the “PBM E-score” value was -0.0189.

For GGAAGGAA, the “PBM E-score” value is -0.101.

As to AGTCCCTC, the “PBM E-score” value is -0.335.

In the case of ACTCCGTC, the “PBM E-score” value came out at 0.0602.

For GCCCGAAC, the “PBM E-score” value is -0.176.

With AGCTAGCC, the “PBM E-score” value is -0.115.

Turning to CCTCAACC, the “PBM E-score” value is -0.0748.

Consider CTCTCGGC, for which the “PBM E-score” value was -0.196.

As for AAGTGGGA, the “PBM E-score” value was 0.0966.

In the case of ACCGTTGA, the “PBM E-score” value came out at 0.0573.

For the sequence CTGACCCC, the “PBM E-score” value was -0.359.

For the sequence ACACTTAT, the “PBM E-score” value is 0.119.

ACCGTACT: the “PBM E-score” value was 0.0481.

In the case of AATCCTCT, the “PBM E-score” value was -0.189.

For CACTTCAG, the “PBM E-score” value is -0.131.

Regarding CAGGCGGC, the “PBM E-score” value was -0.0166.

On to CATATCGA, for which the “PBM E-score” value amounted to 0.038.

Take GGTTGGGA: the “PBM E-score” value is -0.148.

Consider CTCAACAC, for which the “PBM E-score” value amounted to 0.186.

As for CGGCTTGC, the “PBM E-score” value was found to be 0.184.

Turning to AACACAGC, the “PBM E-score” value was determined as 0.124.

Consider ATCTATAC, for which the “PBM E-score” value was found to be 0.0231.

Turning to CCACTCCC, the “PBM E-score” value was -0.31.

Consider CCAGCTAG, for which the “PBM E-score” value is -0.0645.

Regarding AGAAGAAG, the “PBM E-score” value is -0.101.

On to CTCAGGCA, for which the “PBM E-score” value was -0.0578.

For the sequence CCTGTGCC, the “PBM E-score” value was -0.142.

With GATAGCGA, the “PBM E-score” value turned out to be 0.0813.

As for ATACCGCA, the “PBM E-score” value is -0.0216.

In the case of CTGGTCCA, the “PBM E-score” value was -0.0771.

With AATACGAT, the “PBM E-score” value amounted to 0.182.

For the sequence CCGATGCA, the “PBM E-score” value was -0.064.

As to CCGGATCA, the “PBM E-score” value was -0.0431.

With GTTGGCGA, the “PBM E-score” value was -0.103.

CAGTCTCG: the “PBM E-score” value was -0.247.

On to ATACAGGG, for which the “PBM E-score” value was 0.0532.

Take CTCTACTA: the “PBM E-score” value turned out to be 0.0358.

For the sequence ATACGCGA, the “PBM E-score” value came to 0.0401.

For CGCGGTCA, the “PBM E-score” value is -0.0578.

Take ACTTACAG: the “PBM E-score” value was found to be 0.00545.

Take ACATCGGG: the “PBM E-score” value was -0.173.

In the case of GAACCTAC, the “PBM E-score” value is -0.106.

On to ACTTAGTA, for which the “PBM E-score” value was 0.154.

Take AAGCCTGA: the “PBM E-score” value is -0.126.

Regarding GTACTAGA, the “PBM E-score” value was 0.174.

GCTGACAA: the “PBM E-score” value was determined as 0.11.

Turning to AAAATCCC, the “PBM E-score” value was -0.0336.

Consider CTTGCAAC, for which the “PBM E-score” value is 0.063.

Take ATACAGAG: the “PBM E-score” value was -0.0421.

As to GCCGCAAC, the “PBM E-score” value worked out at 0.138.

AGTACGTG: the “PBM E-score” value is -0.125.

On to ATCAACGC, for which the “PBM E-score” value worked out at 0.13.

Take GGTGCCCA: the “PBM E-score” value was -0.225.

In the case of CTACGTGA, the “PBM E-score” value was determined as 0.0384.

Regarding CCCAACTA, the “PBM E-score” value is -0.0465.

CCCGAGAG: the “PBM E-score” value is -0.215.

AATTCGCC: the “PBM E-score” value was determined as 0.218.

ATAGCTGC: the “PBM E-score” value was 0.0845.

On to GCGGGCAA, for which the “PBM E-score” value is -0.119.

Regarding CATTCGTC, the “PBM E-score” value amounted to 0.148.

Consider GGTTGGCA, for which the “PBM E-score” value is -0.203.

On to CTAAGTCA, for which the “PBM E-score” value is 0.00474.

For the sequence GTAGATGA, the “PBM E-score” value was 0.181.

With TGGATCCA, the “PBM E-score” value was -0.124.

As to GGCGAAAC, the “PBM E-score” value was -0.129.

With GATCCCAC, the “PBM E-score” value is -0.0436.

With ATTTGCGC, the “PBM E-score” value was 0.0678.

For the sequence AATCTTAG, the “PBM E-score” value was 0.0938.

Take AGTGTTAT: the “PBM E-score” value amounted to 0.0858.

On to AAAGAGGG, for which the “PBM E-score” value was -0.0976.

Take CTGCCATA: the “PBM E-score” value came out at 0.00534.

With AGCGCTAC, the “PBM E-score” value was -0.199.

Take AGCATATC: the “PBM E-score” value turned out to be 0.0899.

GCGTTTGA: the “PBM E-score” value was -0.00718.

As for AATATTGT, the “PBM E-score” value is 0.306.

In the case of AATCTAAC, the “PBM E-score” value is 0.108.

As for TAACCATA, the “PBM E-score” value stood at 0.035.

For ACTACGTA, the “PBM E-score” value was found to be 0.343.

Take ACACCATA: the “PBM E-score” value was determined as 0.0465.

For the sequence CCCATCTA, the “PBM E-score” value was -0.135.

In the case of ATGATCCA, the “PBM E-score” value is -0.0761.

As for AGATACTA, the “PBM E-score” value was -0.0394.

In the case of AGGCCCTA, the “PBM E-score” value is -0.28.

Take GAACAGCC: the “PBM E-score” value was -0.215.

Take ACATTCGG: the “PBM E-score” value is -0.086.

As to CACTTGGA, the “PBM E-score” value was -0.065.

As to AGAGTCAC, the “PBM E-score” value is 0.0294.

With ACTAGTAA, the “PBM E-score” value is 0.211.

Consider CAGGTAGG, for which the “PBM E-score” value is -0.16.

Regarding AACCATAC, the “PBM E-score” value is -0.0951.

On to TGACTACA, for which the “PBM E-score” value is 0.228.

Consider CAACTGCG, for which the “PBM E-score” value is -0.0363.

As for CTCCCTCC, the “PBM E-score” value was -0.317.

On to GAGCAAAA, for which the “PBM E-score” value turned out to be 0.0129.

In the case of CACTACGC, the “PBM E-score” value was -0.0437.

Take ATCCAGGA: the “PBM E-score” value was -0.206.

GAGAAAGA: the “PBM E-score” value worked out at 0.00015.

Regarding TCTAGGAA, the “PBM E-score” value is -0.0398.

CGAAAACC: the “PBM E-score” value worked out at 0.122.
